Assay results: the supplement of paper PMC7826260
Some of the results follow. Viral Rep nickase domains cut single-stranded DNA in vitro at 3 µM enzyme and 37 °C for 1 h; the strands have 90 letters, of which the middle is given. Uncut reads are compared with the no-enzyme pool on a log2 scale; more negative means more cut, near 0 not cut, and no call is made. Counts are relative to all reads; uncut strands gain when others are lost, and binding without cutting may add a little.

Legend:
Test in all cases: uncleaved DNA left, log2 of reads against the no-enzyme library (log2 ratio); higher = less cleavage (more negative = more Rep cleavage of the k-mer); sequences stand for … in CTCGTCCG…ACCGGAGA
[1] = test system: T1, Rep nickase domain of Muscovy duck circovirus
T1 sequence (Rep 1-111, printed without the tag): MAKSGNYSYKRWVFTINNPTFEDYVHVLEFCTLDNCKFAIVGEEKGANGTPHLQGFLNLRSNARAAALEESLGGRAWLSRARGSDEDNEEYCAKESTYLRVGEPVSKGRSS
Procedure: (§1)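 A pool of 90-nt single-stranded DNAs with seven random bases just before the constant AC of the nick site (name = the seven bases) was cut by 3 µM recombinant His6-SUMO-tagged Rep nickase domain (300 nM DNA, 50 mM HEPES pH 8.0, 50 mM NaCl, 1 mM MnCl2, 1 h, 37 °C, three replicates). Uncut DNA was amplified and sequenced.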

[2] = test system: T2, Rep nickase domain of banana bunchy top virus
T2 sequence (Rep 1-94, printed without the tag): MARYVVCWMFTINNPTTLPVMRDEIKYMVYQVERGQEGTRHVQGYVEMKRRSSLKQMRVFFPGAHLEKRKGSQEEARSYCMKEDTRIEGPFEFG
Procedure: as §1

[3] = test system: T3, Rep nickase domain of cabbage leaf curl virus
T3 sequence (Rep 1-116, printed without the tag): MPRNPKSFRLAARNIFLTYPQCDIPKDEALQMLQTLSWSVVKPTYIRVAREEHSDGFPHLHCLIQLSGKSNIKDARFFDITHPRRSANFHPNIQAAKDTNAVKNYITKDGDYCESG
Procedure: as §1

[4] = test system: T4, Rep nickase domain of chickpea chlorotic dwarf virus
T4 sequence (Rep 1-124, printed without the tag): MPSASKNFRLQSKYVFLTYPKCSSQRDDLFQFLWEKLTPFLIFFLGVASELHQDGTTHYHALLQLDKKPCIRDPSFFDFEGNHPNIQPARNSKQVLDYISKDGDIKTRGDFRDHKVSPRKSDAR
Procedure: as §1

[5] = test system: T5, Rep nickase domain of faba bean necrotic yellows virus
T5 sequence (Rep 1-98, printed without the tag): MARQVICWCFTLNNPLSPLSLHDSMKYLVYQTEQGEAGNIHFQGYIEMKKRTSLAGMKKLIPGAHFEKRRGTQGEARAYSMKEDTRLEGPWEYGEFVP
Procedure: as §1

[6] = test system: T6, Rep nickase domain of maize striate mosaic virus
T6 sequence (Rep 1-117, printed without the tag): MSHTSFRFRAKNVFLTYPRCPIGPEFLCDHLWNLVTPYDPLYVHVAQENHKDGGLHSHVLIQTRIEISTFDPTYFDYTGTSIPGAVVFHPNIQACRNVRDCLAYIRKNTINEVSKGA
Procedure: as §1

[7] = test system: T7, Rep nickase domain of porcine circovirus 2
T7 sequence (Rep 2-116, printed without the tag): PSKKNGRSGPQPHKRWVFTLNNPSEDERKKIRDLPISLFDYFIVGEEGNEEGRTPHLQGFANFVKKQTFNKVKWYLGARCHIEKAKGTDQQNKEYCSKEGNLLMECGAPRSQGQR
Procedure: as §1

[8] = test system: T8, Rep nickase domain of tomato golden mosaic virus
T8 sequence (Rep 1-124, printed without the tag): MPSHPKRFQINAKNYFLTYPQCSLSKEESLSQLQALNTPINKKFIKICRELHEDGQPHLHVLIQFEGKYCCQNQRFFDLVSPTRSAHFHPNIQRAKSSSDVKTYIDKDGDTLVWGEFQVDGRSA
Procedure: as §1

[9] = test system: T9, Rep nickase domain of tomato yellow leaf curl virus
T9 sequence (Rep 1-136, printed without the tag): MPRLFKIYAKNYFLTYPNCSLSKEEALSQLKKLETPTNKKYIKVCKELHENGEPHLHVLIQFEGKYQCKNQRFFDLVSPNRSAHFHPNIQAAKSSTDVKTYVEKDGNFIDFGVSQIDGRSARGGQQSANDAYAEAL
Procedure: as §1

[10] = test system: T10, Rep nickase domain of wheat dwarf virus
T10 sequence (Rep 1-137, printed without the tag): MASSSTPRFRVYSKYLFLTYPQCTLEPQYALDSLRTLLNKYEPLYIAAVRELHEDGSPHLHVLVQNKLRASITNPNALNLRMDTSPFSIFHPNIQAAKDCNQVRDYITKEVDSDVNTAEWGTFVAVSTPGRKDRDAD
Procedure: as §1

Row | Sequence | uncleaved DNA left (log2) [1] | uncleaved DNA left (log2) [2] | uncleaved DNA left (log2) [3] | uncleaved DNA left (log2) [4] | uncleaved DNA left (log2) [5] | uncleaved DNA left (log2) [6] | uncleaved DNA left (log2) [7] | uncleaved DNA left (log2) [8] | uncleaved DNA left (log2) [9] | uncleaved DNA left (log2) [10]
1 | GGCAAAT | -0.0656 | 0.0904 | 0.726 | 1.69 | -0.0532 | 2.08 | 0.121 | -0.0335 | 0.046 | 0.16
2 | TGTATTC | 0.0394 | -0.0885 | 0.374 | 0.614 | -0.00924 | 0.739 | -0.0178 | 0.072 | 0.0116 | 0.101
3 | CGGAACT | 0.128 | 0.0872 | 0.385 | -0.154 | -0.12 | 1.32 | -0.159 | -0.0254 | 0.0029 | 0.0928
4 | ATGCACC | 0.114 | 0.0456 | -0.0463 | -0.0771 | 0.129 | -0.491 | -0.0606 | -0.105 | 0.00253 | 0.0348
5 | CCTGCCT | 0.089 | 0.1 | -0.0324 | -1.32 | 0.123 | -0.209 | -0.0671 | 0.0678 | 0.1 | 0.177
6 | AGGCTTG | 0.0129 | 0.0113 | 0.182 | 0.582 | 0.154 | 1.01 | 0.232 | 0.219 | -0.0231 | -0.0527
7 | GAGTAAA | 0.19 | 0.134 | 0.328 | 0.738 | -0.112 | 1.21 | -2.24 | 0.149 | 0.131 | 0.0913
8 | GCTGGTC | -0.017 | 0.0722 | 0.193 | 0.627 | 0.0857 | 0.893 | -0.0168 | 0.0251 | 0.193 | -0.0159
9 | AGCCCAG | 0.101 | 0.0615 | -0.25 | -0.0285 | 0.018 | -0.531 | 0.184 | 0.105 | 0.0887 | 0.104
10 | TGAACTT | -0.0657 | -0.0597 | 0.15 | -1.48 | -0.0321 | 0.566 | -0.272 | -0.118 | 0.067 | 0.012
11 | GCTGGCT | 0.0929 | -0.041 | 0.0573 | 0.0586 | -0.184 | 0.205 | 0.0123 | 0.135 | -0.0552 | -0.169
12 | CGGACTG | 0.138 | 0.202 | 0.24 | 0.872 | 0.117 | 1.89 | 0.0787 | 0.109 | 0.0941 | 0.258
13 | GCGTTGC | -0.00918 | -0.155 | -0.72 | -0.399 | 0.0148 | -0.79 | 0.0921 | -0.142 | 0.00846 | -0.103
14 | AAAAGTT | -0.222 | -0.165 | -3.57 | -2.86 | -0.107 | -1.73 | -2.73 | -0.9 | -0.163 | -2.29
15 | GACACTA | 0.0361 | -0.0184 | 0.191 | -0.539 | -0.108 | 0.707 | -0.0321 | -0.0938 | 0.0564 | 0.153
16 | TATCAGG | -0.0104 | -0.0885 | 0.476 | 1.21 | -0.113 | 1.42 | -0.0288 | 0.0587 | -0.198 | -0.0398
17 | CAGGTCA | 0.0252 | 0.172 | 0.173 | -0.236 | 0.14 | 0.616 | -0.0772 | 0.164 | 0.24 | 0.157
18 | ATCAATG | 0.027 | -0.0169 | -0.623 | -0.513 | -0.0449 | -1.16 | 0.0223 | 0.0542 | 0.0228 | -0.0732
19 | CATCGGG | -0.00168 | 0.0449 | -0.426 | -0.37 | -0.148 | -1.12 | 0.123 | -0.0585 | -0.0188 | -0.169
20 | CTTTACA | -0.169 | -0.0433 | -0.562 | -2.44 | -0.191 | -0.808 | -0.256 | -0.159 | -0.221 | -0.089
21 | CATACTA | 0.0384 | 0.0524 | -0.114 | -2.46 | 0.183 | -0.482 | -0.0452 | 0.0679 | 0.132 | 0.118
22 | TCCACCC | -0.0684 | 0.00124 | 0.128 | -0.702 | -0.0467 | -0.269 | -0.645 | -0.148 | -0.11 | -0.105
23 | GGCTTGT | -0.0391 | 0.0126 | 0.196 | 0.769 | -0.0141 | 1.65 | -0.118 | 0.163 | 0.0437 | 0.0323
24 | CCCAAGT | -0.0412 | -0.116 | -0.0191 | -0.214 | -0.093 | -0.655 | -0.0774 | -0.113 | -0.158 | -0.142
25 | TGTGACT | 0.0325 | 0.0503 | 0.183 | 0.728 | 0.0147 | 1.71 | 0.046 | 0.146 | 0.0141 | 0.188
26 | GCCTCAC | -0.118 | -0.15 | 0.0847 | 0.0331 | -0.0235 | 0.186 | -0.0321 | -0.0413 | -0.123 | -0.145
27 | CCGAACT | 0.0697 | 0.0168 | -0.0185 | -2.16 | -0.00255 | -0.0201 | -0.153 | 0.0867 | -0.14 | -0.133
28 | GACAAAC | 0.0662 | 0.0577 | 0.274 | 0.731 | 0.00584 | 0.424 | 0.252 | 0.00752 | 0.0442 | 0.131
29 | TTTACTA | -0.0579 | 0.00827 | 0.0605 | -1.77 | 0.0171 | 0.501 | -0.115 | -0.0307 | 0.0246 | 0.0694
30 | GGTACGG | 0.0136 | -0.0203 | 0.486 | 1.59 | -0.0435 | 2.09 | 0.0751 | 0.0916 | 0.0286 | 0.0986
